This is one part of the list.
B1: chr12:110929880:110929881:-_ENSG00000111237_ENST00000549970|hu_hu|FALSE|FALSE (ssRNA)
RNA: GGGAGUUCUACAGUCCGACGAUCUUCGAUUCGUUCUACUUUCACAUCAUCUCCAAUUAGCUGAUACACAUAGGUGACCACUGUAGAAGCCUGGAUAUCCAUCAACACAAAUGAUGGAAUAAUGUUUGUUUCCAAGGCAUUAUACAACAGAGGAUUGAGCAUCA
B2: chr7:150069161:150069162:+_ENSG00000214022_ENST00000425389|hu_mus|FALSE|FALSE (ssRNA)
RNA: GGGAGUUCUACAGUCCGACGAUCCUCGGUGCAUGGGUAGGGCUUCUCGCCGGUAUGUAUGCGCCGGUGCGAGGUCAGGUAGGGCUUGUUGGUGAAACGCUUCCCGCACUCUGGGCACUGGUGUGGUCGCUCACCAGUGUGCACCAACAGAGGAUUGAGCAUCA
B3: chr9:5785663:5785664:-_ENSG00000099219_ENST00000339450|hu_hu|FALSE|FALSE (ssRNA)
RNA: GGGAGUUCUACAGUCCGACGAUCGAGACAAGCAGCUUCAAGGACGUUUUCUCCGGCAAUGCAUACUUACUGUGCUCUUUCUAUUCAGACAGAUCCACAGACCACCUUUCAAGAGCAUUCCUCUCUCAUUUCCUCCAUCACCCACAACAGAGGAUUGAGCAUCA
B4: chr12:493273:493274:-_ENSG00000073614_ENST00000399788|hu_mus|hu_hu_hu_mus_False|28_88 (ssRNA)
RNA: GGGAGUUCUACAGUCCGACGAUCUUUUCUCUCCACCACAGGGAUCUUCAGAGUAGAUCCUUGAAGUUCCCAAAAUUUUGCCAGUUGAUCCAAGAAGUCCAAUCUUACUCUGGUCAUUGCCUCAAGUUCAUUCAGGCGCUGGACCAACAGAGGAUUGAGCAUCA
B5: chr10:1038518:1038519:+_ENSG00000107937_ENST00000545048|hu_hu|FALSE|FALSE (ssRNA)
RNA: GGGAGUUCUACAGUCCGACGAUCAAGUCUAUCAUGGUAAUUCUGUUGAGUAAAUUUGACUUUUCUCAUGUAAAAAUGUCUAAUGCGAUGUAUUUGGUAAUGUUUAUGAAUAACGGUUGGAGUCUUUCGUUGAGUCUUCGACAACAACAGAGGAUUGAGCAUCA
B6: 79254388_79254508_2281_CDS_ENSMUSG00000020716_ENSMUST00000071325|mouse|control|control (ssRNA)
RNA: GGGAGUUCUACAGUCCGACGAUCUCGAAUAUCUGCUUCUUCACAGAGGUGGCGGAAACAGGACAUAGCAACCAGAACAGCUUCAGUGUCAGGAUUCCACAGAAACAUGUAUAAGGCCACUUCUAGCUUGGUCUGGGCUUGUCGCAACAGAGGAUUGAGCAUCA
B7: 120361156_120364552_1330_CDS_ENSMUSG00000064302_ENSMUST00000049404|mouse|control|control (ssRNA)
RNA: GGGAGUUCUACAGUCCGACGAUCGGACUGUGGCAGUCCUUUCUUACUGAGGUCUGCCCUCACACGUUCACCUACAUGUCUAUAAAUCUCCACCAGACUGUUUAUUGCUGCGUCUCGAACCUGGCUGUUGGGAUCUCCCAGUAGCAACAGAGGAUUGAGCAUCA
B8: chr5:68498363:68498364:+_ENSG00000153044_ENST00000283006|hu_hu|motif|central (ssRNA)
RNA: GGGAGUUCUACAGUCCGACGAUCUUUUUCCUCUAAAUCCCAAGAUUCCUGCUGUGAUUUCAUUAUUAAUUUAUUUAGCUCGGAUAGGUGUUUCAUGUUAUCCAUGAGCACACUAGACUGUCUGCUAAUUUUCUCCAGGUUUUUCAACAGAGGAUUGAGCAUCA
B9: 110841348_110841468_127_CDS_ENSG00000196510_ENST00000455511|human|control|control (ssRNA)
RNA: GGGAGUUCUACAGUCCGACGAUCUGUAAGUAACAAGCUGCUGAGGAGCCGCACGUUGGAGUGCAGCCCCGCGGCCGCCAUGUCCCGCACGUGGUCUAUCACAUUCAUCCUGCUCUGCAAAGCCGCGGGCAGCGGCGGCAGCACCAACAGAGGAUUGAGCAUCA
B10: 77698130_77698250_3958_3pUTR_ENSMUSG00000025427_ENSMUST00000026494|mouse|control|control (ssRNA)
RNA: GGGAGUUCUACAGUCCGACGAUCGGGAGGGGGGUGAAGGAUCAACCCCUACCCUGCCCAGGUCCUAAUGUUAGCCUGGAGCGUUCAAAGAGCCUGAACAAAAAGGAAGCAAGCCGAACCCGCCCUGCCCUCUCACUCGGCCUGCAACAGAGGAUUGAGCAUCA
B11: 109512259_109512379_85_5pUTR_ENSMUSG00000020612_ENSMUST00000049527|mouse|control|control (ssRNA)
RNA: GGGAGUUCUACAGUCCGACGAUCGGGCGGCGGCACGAGCAGGGGCUAACGCAGGGCGAGGCGGCCGGGGUGACCGAGCGUCCAGCGGGCUCAGCUCGCAGCCUCACUACCACUCUGCGAUAGCGGCUCGGCGACGGCUCCACCCAACAGAGGAUUGAGCAUCA
B12: chr19:582928:582929:+_ENSG00000172270_ENST00000353555|hu_hu|FALSE|FALSE (ssRNA)
RNA: GGGAGUUCUACAGUCCGACGAUCGGGGCCGCAGGGCAGCAGCUCCCGGGCUCUCGUGAAACACUUCAGAAGGAAAAAAACCUAAGGAACAGAAUCCUGAAUGGAGAAAACCCAACUUUUUUAAAAAAGAAGGAAGUGUAUGAUCAACAGAGGAUUGAGCAUCA
B13: chr6:114281168:114281169:-_ENSG00000196591_ENST00000368632|hu_hu|hu_hu_hu_mus_True|88_98 (ssRNA)
RNA: GGGAGUUCUACAGUCCGACGAUCUUCCAUUUUUCGGUAUAAGCCAUAAUUUAACAGCAAGUUAUGAGUCAUCCGGAUUCUAUGAGGCUUCAUGGGAUGACCCUGGCCAUAAUAAUAAUUGCCAAUAUCACCAUCAUAGUAGUACAACAGAGGAUUGAGCAUCA
B14: chr5:37680062:37680063:+_ENSMUSG00000029121_ENSMUST00000031004|mus_hu|mus_mus_mus_hu_False|28_38 (ssRNA)
RNA: GGGAGUUCUACAGUCCGACGAUCUUUGGGUGUAGCUGGUACCUCGUACACAGGACCGUCAUACAUGCCCCUGGAAACCCCUUGCAAUCCAAAAACCUUGCUUCUGAUCCUGACACGCUGGUACAGGUGCUCCGGGAACGCCUUCAACAGAGGAUUGAGCAUCA
B15: chr1:95362928:95362929:-_ENSG00000117519_ENST00000538964|hu_mus|FALSE|FALSE (ssRNA)
RNA: GGGAGUUCUACAGUCCGACGAUCGACCACAUUUAGCAAAUCAACUUUUUAGUCUUCCACAUACAAGCCAGAUACGUACUAAAACUGUAAAAAAAGGAGAAAAAAUAGUUUCCUAUUGUUCGAAAAUACCAGUUUAUGUGUAAGCAACAGAGGAUUGAGCAUCA
B16: chr7:150069161:150069162:+_ENSG00000214022_ENST00000425389|hu_hu|FALSE|FALSE (ssRNA)
RNA: GGGAGUUCUACAGUCCGACGAUCCUCUUUGCACGGGUAGGGCUUCUCGCCGGUGUGGAUGCGCCGGUGCGAAGUCAGAUAGGGCUUAUUGGUAAAGCGCUUCCCGCACUCGGGGCACUGGUGGGGCCGCUCGCCCGUGUGCACCAACAGAGGAUUGAGCAUCA
B17: chr8:40069188:40069189:+_ENSMUSG00000039530_ENSMUST00000167992|mus_hu|FALSE|FALSE (ssRNA)
RNA: GGGAGUUCUACAGUCCGACGAUCCUUCUGUCCUCCCCCGAGCUGGAUGCAGAGCAGCAGCAGCAGGAGAAGGAAGGGAAAGCUCCCGGUGGGCAGGUACCGCAGCCGCCGCCCCGCUUGCCUACGGCGUGAAGGAGCGCCCCGCAACAGAGGAUUGAGCAUCA
B18: chr11:77336104:77336105:-_ENSG00000074201_ENST00000525064|hu_mus|hu_hu_hu_mus_False|1_8 (ssRNA)
RNA: GGGAGUUCUACAGUCCGACGAUCCUCACACAUUGCUGUGAACAUCGCCUCCAAUGCUGACUUAUCACUGGGCACAAAUCGAAAUUCAGAAAUGGGUUCAACAUCAUCAUUGUCUUCCUCAUCUUCAUCAUCAGCAACAGGUUCCAACAGAGGAUUGAGCAUCA
B19: 31337659_31337779_3093_3pUTR_ENSMUSG00000021962_ENSMUST00000022535|mouse|control|control (ssRNA)
RNA: GGGAGUUCUACAGUCCGACGAUCCCGGCGGGACCGCUGCGUCUGUCAGCAUUAUUCACAGCGAAUCCUUACGCUAGCUGGUUGAGCCAACUGGGUUCUUACCCAUCAUUAAAUAGUGCUCAGAAAAGUAAGCAGUGCAUUAAUCAACAGAGGAUUGAGCAUCA
B20: chr5:138699528:138699529:+_ENSG00000120727_ENST00000265192|hu_mus|FALSE|FALSE (ssRNA)
RNA: GGGAGUUCUACAGUCCGACGAUCAUCCUCUUCAUGAGAAUGACCGUUAAUAAUCACAUCGUCAUUGAUGAUGCUUGGGCUAGUACUGCUGCGACUUGGAUCUUUCAUGGUUGGUGCUCGUUGUCGUUUUUAACCCAGUGCACGCAACAGAGGAUUGAGCAUCA
B21: chr12:39763582:39763583:-_ENSG00000139116_ENST00000544797|hu_mus|hu_hu_hu_mus_False|28_48 (ssRNA)
RNA: GGGAGUUCUACAGUCCGACGAUCCUCUAGGAACUGGGCAUUCACUUUGAAUUCAGGAGGGGGCAGCCCGUUUUUAAUCGCUGAGGUUUUUUUUUCUUCAAUACUCUUAAAAAGGUGUCUAACAGCACGAGAGAUGAUGCCCUGCAACAGAGGAUUGAGCAUCA
B22: chr2:179883191:179883192:+_ENSMUSG00000039050_ENSMUST00000040668|mus_hu|FALSE|FALSE (ssRNA)
RNA: GGGAGUUCUACAGUCCGACGAUCGUAGAUGGAGCCAUGGAACAGGAAGUCAUGGUUGAGACCUUCCGAGUGGAACGCACUGAUGGGGGGGUGGUGACUGACCUGUUCCGAUAUAAAUCUGAAUCCUAAAUCUUCCCUGAUUAACAACAGAGGAUUGAGCAUCA

These binders were tested against T1, UNK ZnF1-3 (human, UniProt Q9C0B0 31-174) (assay: nsRBNS (natural sequence RNA bind-n-seq); RBNS binding buffer (assumed for nsRBNS): 25 mM Tris pH 7.5, 150 mM KCl, 3 mM MgCl2, 0.01% Triton X-100, 500 ug/ml BSA, 20 U/ml SUPERase-In, 4 C; UNK is unkempt and MSI1 is Musashi-1; names of the RNAs are library labels; protein concentration not given here; high values mean tight binding).
T1 sequence: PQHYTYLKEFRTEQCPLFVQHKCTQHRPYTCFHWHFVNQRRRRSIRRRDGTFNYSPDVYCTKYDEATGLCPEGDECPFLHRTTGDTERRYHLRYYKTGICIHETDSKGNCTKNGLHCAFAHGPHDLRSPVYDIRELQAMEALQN
In the case of B1, the binding signal is reported as 1.29 enrichment R.
For B2, the binding signal was 0.494 enrichment R.
In the case of B3, the binding signal is reported as 1.22 enrichment R.
For B4, the binding signal was 1.08 enrichment R.
Work on B5 yielded a binding signal of 1.53 enrichment R.
In the case of B6, the binding signal is reported as 1.44 enrichment R.
In the case of B7, the binding signal is reported as 0.609 enrichment R.
Work on B8 yielded a binding signal of 0.57 enrichment R.
With B9 the binding signal was 0.731 enrichment R.
B10 was tested, and the binding signal was 0.897 enrichment R.
B11 showed a binding signal of 0.408 enrichment R.
In the case of B12, the binding signal is reported as 1.74 enrichment R.
Work on B13 yielded a binding signal of 0.735 enrichment R.
In the case of B14, the binding signal is reported as 0.878 enrichment R.
Binder B15 has a binding signal of 1.09 enrichment R.
B16 showed a binding signal of 0.467 enrichment R.
In the case of B17, the binding signal is reported as 0.686 enrichment R.
Work on B18 yielded a binding signal of 1.23 enrichment R.
In the case of B19, the binding signal is reported as 0.321 enrichment R.
With B20 the binding signal was 0.63 enrichment R.
B21 showed a binding signal of 1.84 enrichment R.
For B22, the binding signal was 0.545 enrichment R.

From paper PMC12136788
